Out of some 48,000 compounds screened, about 450 (0.94%) were called active. Inconclusive means that the source gave no clear call. Such entries were picked first, then a sample of the others. Calls come from the whole dose curve; as a rule, active = well fitted inhibition curve with a large enough effect; inconclusive = small, poorly fitted or top-dose-only effect; inactive = no such curve, though single readings can be large or run the other way. Where the call is inconclusive, the potency comes from a doubtful curve fit.
assay: Primary qHTS for Identification of Small Molecule Inhibitors of Huntingtin Promoter Activity; conditions: HEK293 HTT promoter firefly luciferase reporter (activity 0% = vehicle and -100% = no light), 24 h; series mostly up to 57.5 µM; note: nearly all actives have a fitted effect of over 50% in size
In short: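 Quantitative HTS used concentration series of up to 57.5 uM final on HEK293 luciferase reporter cells, 24 h at 37 degrees C. Readout was Dual-Glo firefly luminescence.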
Potency is the fitted concentration of half-maximal effect; tags give direction and shape of the fitted curve.

SMILES | Potency
Cc1ccccc1OCC(=O)NCC(c1ccc(Cl)cc1)N1CCOCC1 (configuration not stated) | inconclusive: 20 µM [inhibitor, partial curve, poor fit]
O=C1c2[nH]nc(-c3ccccc3O)c2C(c2cccc(Br)c2)N1Cc1ccncc1 (configuration not stated) | inconclusive: 20 µM [inhibitor, partial curve, poor fit]
CCOC(=O)c1cc(-c2ccccc2)n(-c2cccc(C(=O)NC(C)CC)c2)c1C (configuration not stated) | inconclusive: 25.1 µM [inhibitor, partial curve, poor fit]
Cc1ccc(N(C)S(=O)(=O)c2ccc(-c3cnc(C4CC4)o3)cc2)cc1 | inconclusive: 15.8 µM [inhibitor, partial curve, poor fit]
CCn1c(CN2CCCCC2)nc2cc(NC(=O)COc3cc(C)ccc3C(C)C)ccc21 | inconclusive: 28.2 µM [inhibitor, partial curve, poor fit]
CC(C)Oc1ccc(CNC(=O)c2ccc3c(c2)N(Cc2ccc(F)cc2)CCS3)cc1 | inconclusive: 15.8 µM [inhibitor, single point]
COc1ccc(C)cc1NC(=O)CN1CCCN(S(=O)(=O)c2ccc(Br)cc2)CC1 | inconclusive: 35.5 µM [inhibitor, single point]
COC(=O)CSCc1nc(-c2ccc(C(=O)OC)cc2)oc1C | active: 2 µM
COc1ccc(N2CCN(C(=O)c3cn(C4CCCCC4)c(=O)c4c3c3ccccc3n4C)CC2)cc1 | inconclusive: 35.5 µM [inhibitor, single point]
CC(C)c1ccc(C(=O)Nc2ccc(-c3nc4ccccc4s3)c(Cl)c2)cc1 | inconclusive: 10 µM [inhibitor, partial curve, poor fit]
COc1cccc(-n2c(-c3ccco3)nc3c(cnn3-c3ccccc3C)c2=O)c1 | inconclusive: 17.8 µM [inhibitor, partial curve, poor fit]
COc1ccc(-c2nc(Cn3c(SCc4cccc(F)c4)nc4cccnc43)c(C)o2)cc1 | inconclusive: 28.2 µM [inhibitor, single point]
CN(C)c1ccc(CNC(=O)Cn2c(=O)oc3cc(S(=O)(=O)NCc4ccccc4)ccc32)cc1 | inconclusive: 22.4 µM [inhibitor, single point]
CCCC12CN3CC(C)(CN(C1)C3c1cn(CC)c3ccccc13)C2=O (configuration not stated) | inconclusive: 0.199 µM [inhibitor, full curve]
CCOC(=O)c1c(C)[nH]c(CCC(=O)Nc2ccccc2OCC)c1C | inactive
COc1ccc(CNC(=O)c2ccc(CS(=O)(=O)c3ccc(OC)cc3)o2)cc1 | inactive
Cc1nn(CCC(=O)N2CCN(c3ccccc3F)CC2)c(C)c1S(=O)(=O)N1CCCC1 | inconclusive: 31.6 µM [inhibitor, partial curve, poor fit]
CC(=O)N1c2ccc(S(=O)(=O)NCc3ccc(Cl)cc3)cc2CC1C (configuration not stated) | inconclusive: 28.2 µM [inhibitor, partial curve, poor fit]
CCOC(=O)c1cc(S(=O)(=O)NCc2ccc(F)cc2)[nH]n1 | inactive

SMILES | Potency
COc1ccc(CN(C)c2ccc(-c3nc(C)no3)cc2[N+](=O)[O-])cc1 | inconclusive: 28.2 µM [inhibitor, partial curve, poor fit]
Fc1ccccc1N1CCN(c2ncnc3c2nc2n3CCCCC2)CC1 | inconclusive: 39.8 µM [inhibitor, single point]
CCOc1ccc(NC(=O)CC2C(=O)N(c3ccc(F)cc3)C(=O)N2CCc2sccc2C)cc1 (configuration not stated) | inconclusive: 15.8 µM [inhibitor, partial curve, poor fit]
CCCS(=O)(=O)NCCc1csc2nc(-c3ccc(C)cc3)nn12 | inconclusive: 31.6 µM [inhibitor, single point]
CCOc1ccc(NC(=O)C2CCCN(c3nn4cc(-c5ccc(OC)cc5)nc4s3)C2)cc1 (configuration not stated) | inconclusive: 8.91 µM [inhibitor, partial curve, poor fit]
Cc1ccccc1OCCCn1c(CCNC(=O)C2CCCCC2)nc2ccccc21 | inconclusive: 25.1 µM [inhibitor, single point]
CC(=O)c1cccc(NC(=O)C2=CC(c3ccc(F)cc3)=NS(=O)(=O)N2C)c1 | inconclusive: 39.8 µM [inhibitor, single point]
CCN(c1ccc(Cl)cc1)S(=O)(=O)c1nnc(NC(=O)c2ccco2)s1 | inconclusive: 25.1 µM [inhibitor, single point]
CN(C)c1ccc(Nc2nc(N)n(C(=O)c3c(F)cccc3F)n2)cc1 | inactive
COc1ccc(NC(=O)CN2C(=O)CSc3ccc(S(=O)(=O)N(C)C)cc32)cc1OC | inactive
CCNS(=O)(=O)c1cc(-c2nnc(Nc3cccc(C(F)(F)F)c3)c3ccccc23)ccc1C | inconclusive: 28.2 µM [inhibitor, single point]
Cn1c(=O)oc2cc(S(=O)(=O)N3CCCC(C(=O)N4CCN(c5ccc(Cl)cc5)CC4)C3)ccc21 (configuration not stated) | inconclusive: 7.08 µM [inhibitor, partial curve, poor fit]
Cc1ccc(C)c(N2CCN(C(=O)C3CCN(S(=O)(=O)c4ccc5[nH]c(=O)oc5c4)CC3)CC2)c1 | inconclusive: 25.1 µM [inhibitor, single point]
CCc1ccc2nc(N3CCN(C(=O)c4ccccc4)CC3)sc2c1 | inconclusive: 39.8 µM [inhibitor, single point]
Cc1ccc(CNC(=O)c2cccc(N3CCCS3(=O)=O)c2)cc1 | inconclusive: 28.2 µM [inhibitor, partial curve, poor fit]
CN(C(=O)CSc1nc2ccc(NC(=O)c3ccccc3F)cc2s1)c1ccccc1 | inconclusive: 22.4 µM [inhibitor, partial curve, poor fit]
Cc1ccc(NC(=O)CN(CCc2ccccc2)S(=O)(=O)c2ccccc2)c(C)c1 | inconclusive: 31.6 µM [inhibitor, partial curve, poor fit]
COc1ccc(CN2CCc3nc(Nc4ccccc4)ncc3C2)c(OC)c1OC | inconclusive: 28.2 µM [inhibitor, single point]
CC(C)c1cc(C(C)C)c(CC(=O)NS(=O)(=O)Oc2c(C(C)C)cccc2C(C)C)c(C(C)C)c1 | inconclusive: 1.09 µM [inhibitor, full curve, poor fit]

SMILES | Potency
Cc1nc2nc(SCC(=O)Nc3cccc(Cl)c3)nn2c(C)c1Cc1ccccc1 | inconclusive: 39.8 µM [inhibitor, single point]
COc1ccc(-c2oc3cc(OC)ccc3c2C(=O)c2ccc(C#N)cc2)cc1 | inconclusive: 27.3 µM [inhibitor, single point]
COc1ccc(N2C(=O)CSC23C(=O)N(Cc2ccccc2F)c2ccccc23)cc1Cl (configuration not stated) | inconclusive: 28.2 µM [inhibitor, partial curve, poor fit]
O=S(=O)(NCc1ccccc1Cl)c1ccc(-c2cnc(C3CC3)o2)cc1 | inconclusive: 3.98 µM [inhibitor, partial curve, poor fit]
CCC1=Nc2cc(C(=O)NCc3ccccc3OC)ccc2Sc2ccc(Cl)cc21 | inconclusive: 39.8 µM [inhibitor, single point]
CC1=C(c2ccc(C)cc2)S(=O)(=O)NC1=NCCCN1CCN(c2cc(C)ccc2C)CC1 | inconclusive: 39.8 µM [inhibitor, single point]
O=C(NCc1ccc(Cl)cc1)c1ccc(NC(=O)N2CC3CCCN3c3ccccc32)cc1 (configuration not stated) | inconclusive: 22.4 µM [inhibitor, partial curve]
O=C(NCc1ccc(F)cc1)c1cc(Sc2ccc(F)cc2F)nc2ccccc12 | inconclusive: 17.8 µM [inhibitor, partial curve]
CCOC(=O)CN(Cc1ccccc1)C(C(=O)NC1CCCCC1)c1ccc(C)cc1 (configuration not stated) | inconclusive: 31.6 µM [inhibitor, partial curve, poor fit]
CCOC(=O)C1CCN(C(=O)Cn2c(-c3cccs3)cc3cc(Cl)ccc32)CC1 | inconclusive: 25.1 µM [inhibitor, partial curve, poor fit]
CCC(C)n1c(SCc2c(F)cccc2Cl)nc2ccsc2c1=O (configuration not stated) | inconclusive: 11.2 µM [inhibitor, partial curve, poor fit]
COc1cc(N2C(=O)CSC23C(=O)N(Cc2ccc(C)cc2)c2ccccc23)cc(OC)c1OC (configuration not stated) | inconclusive: 35.5 µM [inhibitor, single point]
COc1cc(C2CC(=O)N(Cc3ccc(F)cc3)c3ccccc3S2)cc(OC)c1OC (configuration not stated) | active: 14.1 µM
COC(=O)c1ccccc1NC(=O)c1nc(S(=O)(=O)Cc2cccc(C)c2)ncc1Cl | inactive
Cc1cc(C)cc(NC(=O)CCCN2C(=O)COc3ccc(C)cc32)c1 | inconclusive: 31.6 µM [inhibitor, single point]
O=C(CCc1cn(Cc2ccccc2Cl)c2ccccc12)NC1CCCCC1 | inconclusive: 39.8 µM [inhibitor, single point]
CC(C)c1ccc(NC(=O)C2CCN(c3nc(-c4ccc(C(C)C)cc4)no3)CC2)cc1 | active: 0.0891 µM
C=C1C(=O)[C@@]23C(CC[C@@H]1[C@H]2O)[C@@]12CO[C@]3(O)[C@@H](O)[C@@H]1C(C)(C)CC[C@@H]2O (some centres not stated) | inconclusive: 19.3 µM [inhibitor, partial curve]
Cc1ccc(N2CC(NC(=O)c3ccc(S(=O)(=O)N4CCCC4)cc3)CC2=O)cc1 (configuration not stated) | inconclusive: 25.1 µM [inhibitor, partial curve]
